From the supplement of paper PMC4604168 (melanoma cell lines) come the findings set out here.

This is one part of the list. Repeats are few or missing, and single values can be far off.
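Note: cells treated in 1,536-well plates, then fixed and DAPI-stained, with nuclei counted from automated high-throughput microscope images.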

The first assay relates to UACC257. Briefly: cell count relative to DMSO control; melanoma cells; higher = more viable cells. To be noted: library dose: standard library concentration; 72 h.
For the compound `CN(c1ncccc1CNc1nc(Nc2ccc3c(c2)CC(=O)N3)ncc1C(F)(F)F)S(C)(=O)=O` + O=C1NC(=O)/C(=C/c2ccc(-c3ccc(F)cc3O)o2)S1 [AS252424] (first compound 0.4 µM, partner dose 5 µM), the cell count amounted to 82.2%. The same measure, in the same setting: next, `CS(=O)(=O)c1ccc(C(=O)Nc2ccc(Cl)c(-c3ccccn3)c2)c(Cl)c1` [vismodegib] + CCN(CC)CCCCNc1ncc2cc(-c3cc(OC)cc(OC)c3)c(NC(=O)NC(C)(C)C)nc2n1 [PD173074] (first compound 5 µM, partner dose 0.5 µM): 121%; `C=C(c1ccc(C(=O)O)cc1)c1cc2c(cc1C)C(C)(C)CCC2(C)C` [Bexarotene] + O=c1cc(-c2cccc3c2Sc2ccccc2S3)oc(N2CCOCC2)c1 [KU55933] (first compound 10 µM, partner dose 5 µM): 89.7%.

As for `NC1(c2ccc(-c3nc4ccn5c(=O)[nH]nc5c4cc3-c3ccccc3)cc2)CCC1` + O=c1cc(-c2cccc3c2Sc2ccccc2S3)oc(N2CCOCC2)c1 [KU55933] (first compound 2 µM, partner dose 5 µM), the cell count turned out to be 94.2%.

In turn, `NC1(c2ccc(-c3nc4ccn5c(=O)[nH]nc5c4cc3-c3ccccc3)cc2)CCC1` + COc1cc2ncnc(Nc3ccc(Oc4ccccc4)cc3)c2cc1OC [SrcI1] (first compound 2 µM, partner dose 10 µM) had a cell count of 80.7%. In turn, `CCCS(=O)(=O)Nc1ccc(F)c(C(=O)c2c[nH]c3ncc(Cl)cc23)c1F` + COc1ccc(COc2ccc(Cc3cnc(N)nc3N)cc2OC)cc1 [GW2580] (first compound 0.4 µM, partner dose 5 µM) returned a cell count of 86.5%.

Compound `CCCS(=O)(=O)Nc1ccc(F)c(C(=O)c2c[nH]c3ncc(Cl)cc23)c1F` + Oc1nc(-c2ccc(C(F)(F)F)cc2)nc2c1CSCC2 [XAV939] (first compound 0.4 µM, partner dose 10 µM) had a cell count of 81.1%. Regarding `CN(c1ncccc1CNc1nc(Nc2ccc3c(c2)CC(=O)N3)ncc1C(F)(F)F)S(C)(=O)=O` + COc1cc(N2CCC(N3CCN(C)CC3)CC2)ccc1Nc1ncc(Cl)c(Nc2ccccc2S(=O)(=O)C(C)C)n1 [NVP-TAE684] (first compound 0.4 µM, partner dose 0.4 µM), the cell count was 79.7%. `CCCS(=O)(=O)Nc1ccc(F)c(C(=O)c2c[nH]c3ncc(Cl)cc23)c1F` + c1cc(-c2cnn3cc(-c4ccc(OCCN5CCCCC5)cc4)cnc23)ccn1 [Dorsomorphin] (first compound 0.4 µM, partner dose 2 µM) displayed a cell count of 77.4%. As for `NC1(c2ccc(-c3nc4ccn5c(=O)[nH]nc5c4cc3-c3ccccc3)cc2)CCC1` + O=C1NC(=O)/C(=C/c2ccc(-c3ccc(F)cc3O)o2)S1 [AS252424] (first compound 2 µM, partner dose 5 µM), the cell count came out at 79.4%.

With `CCCS(=O)(=O)Nc1ccc(F)c(C(=O)c2c[nH]c3ncc(Cl)cc23)c1F` + Cc1cc([N+](=O)[O-])ccc1NS(=O)(=O)c1cc(Cl)ccc1Cl [FH535] (first compound 0.4 µM, partner dose 5 µM), the cell count stood at 64.4%. Turning to `CN(c1ncccc1CNc1nc(Nc2ccc3c(c2)CC(=O)N3)ncc1C(F)(F)F)S(C)(=O)=O` + CC(C)CCN1c2nc(Nc3cc(F)c(O)c(F)c3)ncc2N(C)C(=O)C1C [BID1870] (first compound 0.4 µM, partner dose 1 µM), the cell count was determined as 85.5%.

In another assay the test system is UACC62. The assay is described as above. Conditions: library dose: standard library concentration; 72 h.
Compound `CCCS(=O)(=O)Nc1ccc(F)c(C(=O)c2c[nH]c3ncc(Cl)cc23)c1F` + NC(=O)Nc1cc(-c2cccc(F)c2)sc1C(=O)N[C@H]1CCCNC1 [AZD7762] (first compound 0.4 µM, partner dose 0.1 µM) returned a cell count of 58.3%.

The compound `CN(c1ncccc1CNc1nc(Nc2ccc3c(c2)CC(=O)N3)ncc1C(F)(F)F)S(C)(=O)=O` + O=c1cc(-c2cccc3c2Sc2ccccc2S3)oc(N2CCOCC2)c1 [KU55933] (first compound 0.4 µM, partner dose 5 µM) yielded a cell count of 103%. Turning to `CN(c1ncccc1CNc1nc(Nc2ccc3c(c2)CC(=O)N3)ncc1C(F)(F)F)S(C)(=O)=O` + O=C(O)C(=O)Nc1sc2c(c1C(=O)O)CCNC2 [TCS401] (first compound 0.4 µM, partner dose 8.33333 µM), the cell count turned out to be 81.9%.

In turn, `NC1(c2ccc(-c3nc4ccn5c(=O)[nH]nc5c4cc3-c3ccccc3)cc2)CCC1` + O=S(=O)(c1ccccc1)N(CC(F)(F)F)c1ccc(C(O)(C(F)(F)F)C(F)(F)F)cc1 [T0901317] (first compound 2 µM, partner dose 7 µM) returned a cell count of 47.7%. The compound `CCCS(=O)(=O)Nc1ccc(F)c(C(=O)c2c[nH]c3ncc(Cl)cc23)c1F` + O=S(=O)(c1ccccc1)N(CC(F)(F)F)c1ccc(C(O)(C(F)(F)F)C(F)(F)F)cc1 [T0901317] (first compound 0.4 µM, partner dose 7 µM) returned a cell count of 60.7%. On the same count and under the same terms, the same measure for `CN(c1ncccc1CNc1nc(Nc2ccc3c(c2)CC(=O)N3)ncc1C(F)(F)F)S(C)(=O)=O` + O=C(Nc1ccccc1)c1cc([N+](=O)[O-])ccc1Cl [GW9662] (first compound 0.4 µM, partner dose 10 µM): 58.8%. In turn, `CS(=O)(=O)c1ccc(C(=O)Nc2ccc(Cl)c(-c3ccccn3)c2)c(Cl)c1` [vismodegib] + COc1cc2ncnc(Nc3ccc(Oc4ccccc4)cc3)c2cc1OC [SrcI1] (first compound 5 µM, partner dose 10 µM) displayed a cell count of 79.7%. Turning to `NC1(c2ccc(-c3nc4ccn5c(=O)[nH]nc5c4cc3-c3ccccc3)cc2)CCC1` + O=C(O)C(=O)Nc1sc2c(c1C(=O)O)CCNC2 [TCS401] (first compound 2 µM, partner dose 8.33333 µM), the cell count stood at 89.8%.

Turning to `NC1(c2ccc(-c3nc4ccn5c(=O)[nH]nc5c4cc3-c3ccccc3)cc2)CCC1` + COc1ccc(COc2ccc(Cc3cnc(N)nc3N)cc2OC)cc1 [GW2580] (first compound 2 µM, partner dose 5 µM), the cell count is 73.3%. Same read-out and setting: the same measure for `CS(=O)(=O)c1ccc(C(=O)Nc2ccc(Cl)c(-c3ccccn3)c2)c(Cl)c1` [vismodegib] + Cn1cc(/C=C2\C(=O)Nc3cccnc32)c2ccccc21 [GW441756] (first compound 5 µM, partner dose 2 µM): 90.9%.

On to `NC1(c2ccc(-c3nc4ccn5c(=O)[nH]nc5c4cc3-c3ccccc3)cc2)CCC1` + CCN(CC)CCCCNc1ncc2cc(-c3cc(OC)cc(OC)c3)c(NC(=O)NC(C)(C)C)nc2n1 [PD173074] (first compound 2 µM, partner dose 0.5 µM), for which the cell count worked out at 72.1%. On the same count and under the same terms, the same measure for `C=C(c1ccc(C(=O)O)cc1)c1cc2c(cc1C)C(C)(C)CCC2(C)C` [Bexarotene] + COc1ccc(-c2ccc3c(N4CCOCC4)nc(N4C[C@@H](C)O[C@@H](C)C4)nc3n2)cc1CO [KU0063794] (first compound 10 µM, partner dose 0.1 µM): 107%; for `NC1(c2ccc(-c3nc4ccn5c(=O)[nH]nc5c4cc3-c3ccccc3)cc2)CCC1` + c1cc(-c2cnn3cc(-c4ccc(OCCN5CCCCC5)cc4)cnc23)ccn1 [Dorsomorphin] (first compound 2 µM, partner dose 2 µM): 49.8%; for `CN(c1ncccc1CNc1nc(Nc2ccc3c(c2)CC(=O)N3)ncc1C(F)(F)F)S(C)(=O)=O` + O=S(=O)(c1ccccc1)N(CC(F)(F)F)c1ccc(C(O)(C(F)(F)F)C(F)(F)F)cc1 [T0901317] (first compound 0.4 µM, partner dose 7 µM): 51.6%. On to `C=C(c1ccc(C(=O)O)cc1)c1cc2c(cc1C)C(C)(C)CCC2(C)C` [Bexarotene] + O=C1NC(=O)/C(=C/c2ccc(-c3ccc(F)cc3O)o2)S1 [AS252424] (first compound 10 µM, partner dose 5 µM), for which the cell count came to 113%. On the same count and under the same terms, the same measure for `CN(c1ncccc1CNc1nc(Nc2ccc3c(c2)CC(=O)N3)ncc1C(F)(F)F)S(C)(=O)=O` + COc1cc2c(Oc3ccc4[nH]c(C)cc4c3F)ncnc2cc1OCCCN1CCCC1 [cediranib] (first compound 0.4 µM, partner dose 2 µM): 71.7%; for `CCCS(=O)(=O)Nc1ccc(F)c(C(=O)c2c[nH]c3ncc(Cl)cc23)c1F` + CCCCCCCCCCCC1=C(O)C(=O)C=C(O)C1=O [Embelin] (first compound 0.4 µM, partner dose 6 µM): 83.9%; for `CCCS(=O)(=O)Nc1ccc(F)c(C(=O)c2c[nH]c3ncc(Cl)cc23)c1F` + Cc1cc(N2CCOCC2)cc2[nH]c(-c3c(NC[C@@H](O)c4cccc(Cl)c4)cc[nH]c3=O)nc12 [BMS536924] (first compound 0.4 µM, partner dose 1 µM): 48.6%. On to `C=C(c1ccc(C(=O)O)cc1)c1cc2c(cc1C)C(C)(C)CCC2(C)C` [Bexarotene] + Cn1cc(/C=C2\C(=O)Nc3cccnc32)c2ccccc21 [GW441756] (first compound 10 µM, partner dose 2 µM), for which the cell count was found to be 62.2%.

With `C=C(c1ccc(C(=O)O)cc1)c1cc2c(cc1C)C(C)(C)CCC2(C)C` [Bexarotene] + C[C@@H]1CCN(C(=O)CC#N)C[C@@H]1N(C)c1ncnc2[nH]ccc12 [CP690550] (first compound 10 µM, partner dose 5 µM), the cell count turned out to be 95.4%. Still for that read-out and setting: the same measure for `C=C(c1ccc(C(=O)O)cc1)c1cc2c(cc1C)C(C)(C)CCC2(C)C` [Bexarotene] + N#Cc1c(O)c2c(-c3ccc(-c4ccccc4O)cc3)csc2[nH]c1=O [A769662] (first compound 10 µM, partner dose 10 µM): 99.5%.
